According to paper PMC5482489:
Results are given in words; binding and its absence hold for the method and conditions named. In cells and extracts the contact can be indirect. Some entries that bind do so weakly or less than the wild type. Where a sequence is shown, tags or fusion partners need not be part of it. One block for each binder: values may come before it.

Assays:
[1] = target: T1, FLAG-tagged OATP1B3 (human), Q9NPD5; assay: co-IP; membrane fractions of co-transfected HEK293 cells, treated with or without 2 mM DTSSP, solubilised in 0.1% NP-40 in PBS; anti-His, anti-HA or anti-FLAG antibody on magnetic beads, 4°C, 2 days; Western blot after beta-mercaptoethanol; settings: remark: other sources report otherwise
T1 chain: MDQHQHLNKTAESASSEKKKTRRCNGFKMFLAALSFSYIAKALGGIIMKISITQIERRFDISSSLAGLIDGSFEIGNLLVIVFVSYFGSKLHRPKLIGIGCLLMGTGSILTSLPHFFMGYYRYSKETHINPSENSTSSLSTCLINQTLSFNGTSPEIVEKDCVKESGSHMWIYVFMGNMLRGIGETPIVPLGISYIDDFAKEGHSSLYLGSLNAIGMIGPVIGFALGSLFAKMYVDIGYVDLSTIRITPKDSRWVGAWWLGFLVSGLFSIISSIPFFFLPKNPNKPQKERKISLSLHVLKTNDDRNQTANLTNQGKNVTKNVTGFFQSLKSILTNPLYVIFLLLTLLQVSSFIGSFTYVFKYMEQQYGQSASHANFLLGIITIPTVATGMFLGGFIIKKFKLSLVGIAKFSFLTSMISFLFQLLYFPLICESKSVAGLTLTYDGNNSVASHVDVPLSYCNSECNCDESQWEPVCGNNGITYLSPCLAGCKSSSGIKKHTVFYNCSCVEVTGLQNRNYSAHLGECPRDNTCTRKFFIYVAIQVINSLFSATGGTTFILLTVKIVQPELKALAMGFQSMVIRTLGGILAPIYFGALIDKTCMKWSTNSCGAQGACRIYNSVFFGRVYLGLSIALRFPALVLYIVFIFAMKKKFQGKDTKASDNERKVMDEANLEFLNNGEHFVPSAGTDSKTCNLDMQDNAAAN

[2] = target: T1, FLAG-tagged OATP1B3 (human), Q9NPD5; assay: proximity ligation; Duolink PLA on fixed, transiently co-transfected HEK293 cells; rabbit anti-His and mouse anti-FLAG antibodies; settings: remark: other sources report otherwise
[3] = target: T2, HA-tagged OATP1B3 (human), Q9NPD5; assay: co-IP; membrane fractions of co-transfected HEK293 cells, treated with or without 2 mM DTSSP, solubilised in 0.1% NP-40 in PBS; anti-His, anti-HA or anti-FLAG antibody on magnetic beads, 4°C, 2 days; Western blot after beta-mercaptoethanol; settings: remark: other sources report otherwise
T2 chain: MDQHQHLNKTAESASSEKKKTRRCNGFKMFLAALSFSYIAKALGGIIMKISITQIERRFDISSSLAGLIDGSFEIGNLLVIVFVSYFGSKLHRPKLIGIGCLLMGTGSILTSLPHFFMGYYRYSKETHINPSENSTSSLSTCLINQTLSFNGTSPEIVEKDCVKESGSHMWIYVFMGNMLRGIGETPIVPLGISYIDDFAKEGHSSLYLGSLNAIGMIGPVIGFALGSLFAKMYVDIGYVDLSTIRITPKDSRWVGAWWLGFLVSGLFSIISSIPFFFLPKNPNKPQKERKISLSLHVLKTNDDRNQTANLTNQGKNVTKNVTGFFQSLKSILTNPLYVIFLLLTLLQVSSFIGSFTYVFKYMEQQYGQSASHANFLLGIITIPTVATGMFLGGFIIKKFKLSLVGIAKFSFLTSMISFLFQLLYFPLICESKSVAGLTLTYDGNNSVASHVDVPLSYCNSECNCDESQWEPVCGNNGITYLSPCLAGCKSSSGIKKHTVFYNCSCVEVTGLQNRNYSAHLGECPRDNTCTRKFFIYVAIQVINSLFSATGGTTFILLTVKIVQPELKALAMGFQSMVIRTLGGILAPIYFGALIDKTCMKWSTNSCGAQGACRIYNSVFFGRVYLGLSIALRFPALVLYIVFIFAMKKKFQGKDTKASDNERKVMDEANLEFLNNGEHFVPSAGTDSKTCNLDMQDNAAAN

[4] = target: T3, OATP1B3-K41C-His (non-transporting mutant of OATP1B3) (human) (UniProt Q9NPD5); assay: as above
T3 sequence: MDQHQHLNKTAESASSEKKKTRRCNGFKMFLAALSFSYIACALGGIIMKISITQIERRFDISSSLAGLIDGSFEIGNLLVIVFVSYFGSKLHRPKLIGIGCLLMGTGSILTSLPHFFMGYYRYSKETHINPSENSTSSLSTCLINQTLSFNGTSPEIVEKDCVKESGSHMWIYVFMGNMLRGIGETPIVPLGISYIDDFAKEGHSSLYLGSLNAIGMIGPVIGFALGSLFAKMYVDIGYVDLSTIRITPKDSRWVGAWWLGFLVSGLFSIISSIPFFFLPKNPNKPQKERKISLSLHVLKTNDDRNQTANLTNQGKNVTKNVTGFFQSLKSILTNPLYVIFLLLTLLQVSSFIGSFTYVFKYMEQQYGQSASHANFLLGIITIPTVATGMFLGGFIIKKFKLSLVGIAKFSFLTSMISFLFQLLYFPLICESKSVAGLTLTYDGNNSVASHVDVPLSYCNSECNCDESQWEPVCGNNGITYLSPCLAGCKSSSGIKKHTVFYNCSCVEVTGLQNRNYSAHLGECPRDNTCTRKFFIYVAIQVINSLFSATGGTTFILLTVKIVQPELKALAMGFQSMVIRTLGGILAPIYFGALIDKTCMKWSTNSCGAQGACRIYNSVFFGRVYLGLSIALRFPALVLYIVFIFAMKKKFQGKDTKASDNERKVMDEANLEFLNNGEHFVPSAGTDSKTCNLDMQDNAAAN

binding [1]: binds
binding [2]: binds
B1: His-tagged OATP1B3 (organic anion transporting polypeptide 1B3), Q9NPD5 1-702 (protein)
chain: MDQHQHLNKTAESASSEKKKTRRCNGFKMFLAALSFSYIAKALGGIIMKISITQIERRFDISSSLAGLIDGSFEIGNLLVIVFVSYFGSKLHRPKLIGIGCLLMGTGSILTSLPHFFMGYYRYSKETHINPSENSTSSLSTCLINQTLSFNGTSPEIVEKDCVKESGSHMWIYVFMGNMLRGIGETPIVPLGISYIDDFAKEGHSSLYLGSLNAIGMIGPVIGFALGSLFAKMYVDIGYVDLSTIRITPKDSRWVGAWWLGFLVSGLFSIISSIPFFFLPKNPNKPQKERKISLSLHVLKTNDDRNQTANLTNQGKNVTKNVTGFFQSLKSILTNPLYVIFLLLTLLQVSSFIGSFTYVFKYMEQQYGQSASHANFLLGIITIPTVATGMFLGGFIIKKFKLSLVGIAKFSFLTSMISFLFQLLYFPLICESKSVAGLTLTYDGNNSVASHVDVPLSYCNSECNCDESQWEPVCGNNGITYLSPCLAGCKSSSGIKKHTVFYNCSCVEVTGLQNRNYSAHLGECPRDNTCTRKFFIYVAIQVINSLFSATGGTTFILLTVKIVQPELKALAMGFQSMVIRTLGGILAPIYFGALIDKTCMKWSTNSCGAQGACRIYNSVFFGRVYLGLSIALRFPALVLYIVFIFAMKKKFQGKDTKASDNERKVMDEANLEFLNNGEHFVPSAGTDSKTCNLDMQDNAAAN

binding [3]: binds
B2: FLAG-tagged OATP1B3, Q9NPD5 1-702 (protein)
chain: MDQHQHLNKTAESASSEKKKTRRCNGFKMFLAALSFSYIAKALGGIIMKISITQIERRFDISSSLAGLIDGSFEIGNLLVIVFVSYFGSKLHRPKLIGIGCLLMGTGSILTSLPHFFMGYYRYSKETHINPSENSTSSLSTCLINQTLSFNGTSPEIVEKDCVKESGSHMWIYVFMGNMLRGIGETPIVPLGISYIDDFAKEGHSSLYLGSLNAIGMIGPVIGFALGSLFAKMYVDIGYVDLSTIRITPKDSRWVGAWWLGFLVSGLFSIISSIPFFFLPKNPNKPQKERKISLSLHVLKTNDDRNQTANLTNQGKNVTKNVTGFFQSLKSILTNPLYVIFLLLTLLQVSSFIGSFTYVFKYMEQQYGQSASHANFLLGIITIPTVATGMFLGGFIIKKFKLSLVGIAKFSFLTSMISFLFQLLYFPLICESKSVAGLTLTYDGNNSVASHVDVPLSYCNSECNCDESQWEPVCGNNGITYLSPCLAGCKSSSGIKKHTVFYNCSCVEVTGLQNRNYSAHLGECPRDNTCTRKFFIYVAIQVINSLFSATGGTTFILLTVKIVQPELKALAMGFQSMVIRTLGGILAPIYFGALIDKTCMKWSTNSCGAQGACRIYNSVFFGRVYLGLSIALRFPALVLYIVFIFAMKKKFQGKDTKASDNERKVMDEANLEFLNNGEHFVPSAGTDSKTCNLDMQDNAAAN

binding [4]: binds
B3: FLAG-tagged OATP1B3 (protein, UniProt Q9NPD5 1-702)
chain: MDQHQHLNKTAESASSEKKKTRRCNGFKMFLAALSFSYIAKALGGIIMKISITQIERRFDISSSLAGLIDGSFEIGNLLVIVFVSYFGSKLHRPKLIGIGCLLMGTGSILTSLPHFFMGYYRYSKETHINPSENSTSSLSTCLINQTLSFNGTSPEIVEKDCVKESGSHMWIYVFMGNMLRGIGETPIVPLGISYIDDFAKEGHSSLYLGSLNAIGMIGPVIGFALGSLFAKMYVDIGYVDLSTIRITPKDSRWVGAWWLGFLVSGLFSIISSIPFFFLPKNPNKPQKERKISLSLHVLKTNDDRNQTANLTNQGKNVTKNVTGFFQSLKSILTNPLYVIFLLLTLLQVSSFIGSFTYVFKYMEQQYGQSASHANFLLGIITIPTVATGMFLGGFIIKKFKLSLVGIAKFSFLTSMISFLFQLLYFPLICESKSVAGLTLTYDGNNSVASHVDVPLSYCNSECNCDESQWEPVCGNNGITYLSPCLAGCKSSSGIKKHTVFYNCSCVEVTGLQNRNYSAHLGECPRDNTCTRKFFIYVAIQVINSLFSATGGTTFILLTVKIVQPELKALAMGFQSMVIRTLGGILAPIYFGALIDKTCMKWSTNSCGAQGACRIYNSVFFGRVYLGLSIALRFPALVLYIVFIFAMKKKFQGKDTKASDNERKVMDEANLEFLNNGEHFVPSAGTDSKTCNLDMQDNAAAN
